Measured values published in PubChem BioAssay AID1745853 (National Center for Advancing Translational Sciences (NCATS), 2022).
This is one part of the list. Further columns of the screen follow, without active or inactive calls.

What was measured:
Test in all cases: Primary Screen for Target Class Profiling of Small Molecule Inhibitors of Methyltransferases
[1] = target: Guanidinoacetate N-methyltransferase (Homo sapiens) (UniProt Q14353); conditions: purified enzyme, MTase-Glo SAH luminescence; measured here: GAMT inhibition; at 40 µM; stronger effect = lower value
In short: (§1)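 Each enzyme was assayed with SAM and its substrate. SAH formation detected by MTase-Glo luminescence; single-point 40 uM screen[…].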

[2] = target: Nicotinamide N-methyltransferase (Homo sapiens) (UniProt P40261); conditions: purified enzyme, MTase-Glo SAH luminescence; measured here: NNMT inhibition; at 40 µM; stronger effect = lower value
In short: as §1

[3] = target: Phenylethanolamine N-methyltransferase (Homo sapiens) (UniProt P11086); conditions: purified enzyme, MTase-Glo SAH luminescence; measured here: PNMT inhibition; at 40 µM; stronger effect = lower value
In short: as §1

[4] = target: Glycine N-methyltransferase (Homo sapiens) (UniProt Q14749); conditions: purified enzyme, MTase-Glo SAH luminescence; measured here: GNMT inhibition; at 40 µM; stronger effect = lower value
In short: as §1

[5] = target: Histamine N-methyltransferase (Homo sapiens) (UniProt P50135); conditions: purified enzyme, MTase-Glo SAH luminescence; measured here: HNMT inhibition; at 40 µM; stronger effect = lower value
In short: as §1
% is set by controls: 0 for no effect and ±100 for the full control effect.

Structure (SMILES)	activity change, negative = inhibition [1] [%]	activity change, negative = inhibition [2] [%]	activity change, negative = inhibition [3] [%]	activity change, negative = inhibition [4] [%]	activity change, negative = inhibition [5] [%]
Cc1ccc(NS(=O)(=O)c2cc3c(cc2Cl)CCC(=O)N3)cc1Cl	-11.8	-19.7	-3.83	–	–
CC1=C2C[C@@]3(C)[C@@H](CCC[C@@H]3C)C[C@@]2(O)OC1=O	7.05	-7.35	3.52	3.23	13.4
COc1cc(Nc2nc3c(s2)CCCC3c2ccccc2)ccc1-n1cnc(C)c1 (stereo not drawn)	6.27	-5.87	3.27	4.78	7.25
CC(C)CCNC(=O)Cn1ccc2cc(S(=O)(=O)N3CCCC3)ccc21	1.74	1.01	-4.31	-0.212	-8.9
COc1ccc(OC)c2c1cc1n2CC(C)(C(=O)NC2CCCCC2C)N(Cc2ccccn2)C1=O (stereo not drawn)	0	-12.2	2.6	1.54	8.71
CCOCCCNC(=O)CCc1nc(C2CCCN2C(=O)c2ccccc2)no1 (stereo not drawn)	-2.37	-3.03	-1.26	-1.3	1.5
Cn1c(=O)c2ccc(C(=O)NC3CCCC3)cc2n2c(=O)n(CC(=O)c3cccc(Cl)c3)nc12	0	1.36	2.21	2.77	0.039
O=C1NCCN2CC3(CCN(C(=O)C4(c5ccccc5)CC4)CC3)CC12 (stereo not drawn)	-1.66	-3.29	-6.96	-10.2	-2.4
O=S(=O)(NCC1CCOCC1)c1cccc(F)c1	1.51	-1.08	1.32	0.879	2.36
C[C@@H]1CN(Cc2ccccc2)C[C@H]1c1nc2c(cnn2C2CCOCC2)c(=O)[nH]1	-3.47	-22.2	-9.46	-3.09	-1.46
O=C(NCc1ccccn1)c1ccc2c(=O)nc3c(-c4cccc(F)c4)n[nH]n3c2c1	4.09	0.257	-5.48	-11.7	0.639
Cc1cc(C2CCCN2C(=O)c2ccnn2C)on1 (stereo not drawn)	-4.59	-1.52	2.66	-1.62	-1.87
CCn1c(CO)nnc1C1CC(NC(=O)CCc2c(C)nn(C)c2C)C1 (stereo not drawn)	-6.69	-9.65	-2.17	-5.38	-0.976
CC1=Nc2cc(C(=O)NCCCN(C)C)ccc2Sc2ccc(F)cc21	0.416	-10.7	0.414	-4.26	-42.7
CCC(C)NC(=O)c1ccc2c(=O)n(C)c3nn(CC(=O)NC4CCCCC4)c(=O)n3c2c1 (stereo not drawn)	0.515	4.91	7.61	6.13	7.95
CC(C)OCCCn1c(=O)c2ccccc2n2c(=O)n(Cc3ccc(F)cc3)nc12	-0.717	-19.1	-6.79	-9.52	1.71
CCC(C)NC(=O)c1ccc2c(=O)n(C)c3nnc(SCc4ccc(Cl)cc4)n3c2c1 (stereo not drawn)	2.83	7.18	7.51	10.4	12.5
CC(C)OCCCn1c(=O)c2ccccc2n2c(CCC(=O)NCc3ccccc3)nnc12	5.39	7.52	-9.44	-7.75	-1.21
COC(=O)c1ncn2c1C(=O)N(Cc1ccc(C)cc1)C(C)(C(=O)NCc1ccccc1)C2 (stereo not drawn)	-0.334	-10.8	-12.4	-16.4	-13.5
CCC(C)NC(=O)c1ccc2c(=O)n(C3CC3)c3nn(CC(=O)Nc4ccccc4F)c(=O)n3c2c1 (stereo not drawn)	1.25	-3.95	-0.03	-3.12	2.59
O=C1NC2(CCCN(C(=O)Cc3ccccc3)C2)COc2ccccc21 (stereo not drawn)	-4.16	-19.2	-20.5	-7.38	-3.4
CCC1COCCN1C(=O)c1coc(COc2ccc3c(c2)OCO3)n1 (stereo not drawn)	-1.05	-5.7	-1.47	-2.23	-2.88
C[C@@H]1O[C@@H](O[C@H]2[C@H](OC(=O)C34CCC5(C)C(=CCC6C7(C)CC(O)C(O[C@@H]8O[C@H](C(=O)O)[C@@H](O)[C@H](O)[C@H]8O)C(C)(C(=O)O)C7CCC65C)C3CC(C)(C)CC4O)O[C@H](C)[C@@H](O)[C@@H]2O)[C@H](O)[C@@H](O[C@@H]2OC[C@](O)(CO)[C@H]2O[C@@H]2O[C@H](CO)[C@@H](O)[C@H](O)[C@H]2O)[C@H]1O (stereo partly drawn)	3.38	-9.27	-0.25	4.42	9.7
CC(C(=O)O)c1ccc2c(c1)CC(=O)c1ccccc1S2 (stereo not drawn)	0.641	-18.7	2.85	-17.5	13.3
O=[S+]([O-])(CCC(F)(F)F)N1CCN(Cc2ccccc2-c2cccnc2)CC1	-1.1	-11.3	-8.19	-2.42	-2.17
CCc1ccccc1N1C(=O)c2c(NC(C)=O)c3cc(F)ccc3n2CC1(C)C(=O)NC1CCCC1 (stereo not drawn)	6.64	6.26	-1.35	5.08	1.64
COc1cccc(-c2nc3cnccn3c2NCCC(=O)N2CCN(C(C)C)CC2)c1	-2.37	-8.94	-5.35	-4.85	-21.3
CSc1nc(N)c2ncn([C@@H]3O[C@H](COP(=O)(O)OP(=O)(O)O)C(O)[C@H]3O)c2n1 (stereo partly drawn)	-8.42	-23.1	-28.2	-25.9	-26.9

Structure (SMILES)	activity change, negative = inhibition [1] [%]	activity change, negative = inhibition [2] [%]	activity change, negative = inhibition [3] [%]	activity change, negative = inhibition [4] [%]	activity change, negative = inhibition [5] [%]
CCC1c2ccc(C)n2CCN1C(=O)Nc1ccc(F)cc1F (stereo not drawn)	1.69	0.126	-14.9	-10.8	0.474
O=C(NN1CCCCC1)c1nn(-c2ccc(Cl)cc2Cl)c(-c2ccc(C#Cc3ccc(C(F)(F)F)cc3)s2)c1CNS(=O)(=O)N1CCCC1	-5.09	-11.9	2.96	-2.34	10.8
Cc1cn2nc(C(=O)N3CCC(NC(=O)COc4ccccc4)CC3)cc2c(=O)[nH]1	-9.7	-13.6	-13.7	-8.66	-6.34
CC1=C[C@@H](CNC(=O)CCC(=O)O)[C@H](C(C)C)C[C@H]1Cc1nc2ccncc2[nH]1	-7.83	-16.2	-13.2	-7.68	-16.3
CCc1cccc(N2C(=O)c3c(C(=O)OC)ncn3CC2(C)C(=O)NC2CCCCCC2)c1 (stereo not drawn)	0	12.3	4.61	8.74	5.57
CC(CCc1ccc(O)cc1)O[C@@H]1O[C@H](CO[C@@H]2OC(CO)[C@H](O)[C@H]2O)[C@@H](O)[C@H](O)[C@H]1O (stereo partly drawn)	7.83	-3.65	7.47	0	5.77
Nc1c(-c2ccccc2)nc(Cl)c2c(O)n[nH]c(=O)c12	3.11	-13.9	0.108	-1.46	3.87
CSc1ccc(CNC(=O)C2(c3ccc(NS(C)(=O)=O)cc3)CCCCC2)cc1	-7.76	-20.1	-17.2	-8.28	-6.37
COc1ccc(CN2C(=O)c3cc4ccccc4n3CC2(C)C(=O)NC2CCCCCC2)cc1 (stereo not drawn)	2.81	-16.7	-5.58	-4.05	-4.89
CC1CCC(NC(=O)CCc2nnc3n(Cc4ccc(F)cc4)c(=O)c4ccccc4n23)CC1 (stereo not drawn)	3.81	-1.02	-0.913	-1.29	2.13
CC(C)(C)c1coc([C@@H]2COCCN2C2CCC2)n1	-9.34	-2.41	-7.75	-4.08	-3.69
O=C1OCc2cc3cccc(O[C@@H]4O[C@H](CO)[C@@H](O)[C@H](O)[C@H]4O)c3c(O)c21	-14.8	-31.4	-18.1	4.35	-3.78
COc1ccc(N2CCN(C(=O)CCc3nnc4n(CC(C)C)c(=O)c5ccccc5n34)CC2)cc1	19.3	-22.4	2.62	-12.1	9.3
O=C(NCCc1nc2ccccc2s1)[C@H]1CNC[C@@H](C(=O)N2CCOCC2)C1	-11.7	-14.9	-11.5	-7.76	-2.53
COc1ccc(-c2cc3n(n2)CC(C)(C(=O)NC2CCCCC2)N(Cc2ccccc2F)C3=O)cc1 (stereo not drawn)	3.46	9.26	0.89	2.02	4.69
O=C(Cn1c(=O)oc2cc(S(=O)(=O)N3CCCC3)ccc21)NCc1ccc(Cl)cc1	0.783	-10.8	-5.29	-3.76	3.25
O=C(CCc1nnc2n(Cc3ccc(F)cc3)c(=O)c3ccccc3n12)Nc1ccccc1	-1.67	-11.5	-5.3	-2.45	-2.06
CN(CC1CCOC1)C(=O)c1ccco1 (stereo not drawn)	-10.7	-9.51	-9.29	-4.45	-4.01
Clc1ccc(N2CCN(Cc3c[nH]c4ncccc34)CC2)cc1	-1.11	-15.4	-0.982	-11.1	-11.8
C[C@@H]1CCNC(=O)c2cc3ccc(C(=O)Nc4nc5ccccc5n4CCCN(C)C)cc3n21	-10.6	-29.4	-6.18	-12	-36.1
CCOc1ccccc1NC(=O)Cn1c(=O)oc2cc(S(=O)(=O)NCc3ccccc3)ccc21	1.27	-0.609	1.03	3.8	1.86
CCC/C=C/C(=O)O[C@H]1CC(C)(C)CC2[C@]13[C@H](O)O[C@@]21CCC2[C@@]4(C)CC[C@H](O[C@@H]5O[C@H](C(=O)O)[C@@H](O)[C@H](O[C@@H]6O[C@H](CO)[C@H](O)[C@H](O)[C@H]6O[C@@H]6O[C@@H](C)[C@H](O)[C@@H](O)[C@H]6O[C@@H]6OC[C@](O)(CO)[C@H]6O)[C@H]5O[C@@H]5O[C@H](CO)[C@H](O)[C@H](O)[C@H]5O)C(C)(C)C4CC[C@@]2(C)[C@]1(C)C[C@H]3OC(C)=O (stereo partly drawn)	4.29	-5.66	5.55	2.92	2.43
CC1CC(C)CN(S(=O)(=O)c2ccc3c(c2)oc(=O)n3CC(=O)Nc2nccs2)C1 (stereo not drawn)	1.2	-3.13	-10.2	-4.79	-1.23
O=C(Cc1cccc(Cl)c1)N1CCC2(CN[S+](=O)([O-])c3cccnc3O2)C1 (stereo not drawn)	3.52	-0.535	1.81	-2.57	2.83
CC1CCC2C(C(=O)O)=CC3(O)CC(C)(C)CC123 (stereo not drawn)	-1.15	-12.5	3.08	4.47	9.8
CCOc1ccc(CNC(=O)c2cc3n(n2)CC(C)(C(=O)NC2CCCC2)N(CC)C3=O)cc1 (stereo not drawn)	3.62	3.03	0.289	0.843	-3.08
COc1ccc(Br)cc1CNC(=O)c1ccc(N2C(=O)Cn3c(cc4sccc43)C2=O)cc1	-0.485	-17.4	-17.6	-10.4	-12.3
